Experimental findings from paper PMC12136788 are described below.

The chains are these.
B1: chr15:34751031:34752477:-|three_prime_utr|ENSG00000159248|control|control|control (ssRNA)
RNA: GGGAGUUCUACAGUCCGACGAUCAUGACUGCUCAGACGUGGCUGUAUCCACCCUCAUUUAUGUGACCCUCACCAUUAAGAUGUAGGAUAAGACUGGAUAAAAGAAGAUUUUGCACCAAUGGGAAAGGAGGAAAAGUGGACCCACAACAGAGGAUUGAGCAUCA
B2: chrX:48578139:48578249:+|3pUTR|ENSG00000102317|msi1_unk|total|mutant (ssRNA)
RNA: GGGAGUUCUACAGUCCGACGAUCGUAUCAAGAACAUGAUUAUCCAGCGGUAUUUUCUAAUUCAGAUCAUCAAACUGAUUAUACCGAAGAGUUGGCUUUAAAAUGUUUGCAAAUGUCUUUUUUUUUUUAAUACUGGAAGAAAAACAACAGAGGAUUGAGCAUCA
B3: chr2:32415436:32415554:+|CDS|ENSG00000115760|unk|FALSE|unique (ssRNA)
RNA: GGGAGUUCUACAGUCCGACGAUCUGGGACUUUGGUUCAGUGCUUGAGGCUGCCAAAGUUUGCAGAGGAGGAGAAUCUUUGUAUAGACUCAAUAACUCCUUGUGCUGACGGAAUUCAUUUGUUGGUAGGACUGCGGACAUGCCCCAACAGAGGAUUGAGCAUCA
B4: chr16:74623592:74623693:-|3pUTR|ENSG00000168411|msi1|total|mutant (ssRNA)
RNA: GGGAGUUCUACAGUCCGACGAUCCCAUUAUUGUAUGUUGGAAAUUCUUAUUUUCUUUAUUUUCUGUGUGACUUUCUGGACCUCCGAGAGUGUCCUCUCAUCAUCCCGGAUGUGAGUGGGCAUCAAGCAUUUUCUGGGGAAUAUCAACAGAGGAUUGAGCAUCA
B5: chr8:140515610:140515764:+|3pUTR|ENSG00000104472|unk|total|mutant (ssRNA)
RNA: GGGAGUUCUACAGUCCGACGAUCUUUUGGAAUCAGUUCUUAUAAACAGCUCGAUUCAGUUUCCGCUAAAUUUACCGUUCCGGCCGUAUGUUACAUUUGAAUUUUUGUCUUAAGAAAAGUUGACUGUUCAGAUAUUUUUCUACUCAACAGAGGAUUGAGCAUCA
B6: chr2:197486603:197486717:-|3pUTR|ENSG00000144381|unk|total|mutant (ssRNA)
RNA: GGGAGUUCUACAGUCCGACGAUCCCACCAGAUGAGAAGUUAAGCAGCCUUUCUGUGGAGAGUGAGAAUAAUUGUGUACAAAGCCGAGAAGUAUCCAAUUAUGUGACAACCUUUGUGUAAUAAAAAUUUGUUUAAAGUUAAUAACAACAGAGGAUUGAGCAUCA
B7: chr17:57106211:57106324:+|CDS|ENSG00000121057|unk|total|mutant (ssRNA)
RNA: GGGAGUUCUACAGUCCGACGAUCUCAUCCCAGGUGGUGGGGCCAGUGCAGGAGGAAGAGUAUGCCGCAGAGAAGUUGCCAAGCCGGUUCAUCGAGUCGGCUCACACAGAGCUGGCAAAGGACGAUGCGGCGCCAGCACCCCCACAACAGAGGAUUGAGCAUCA
B8: chr6:31137533:31137950:-|three_prime_utr|ENSG00000204538|control|control|control (ssRNA)
RNA: GGGAGUUCUACAGUCCGACGAUCGCAUCUCCAGGCACCCACGCCCUCUCCACCCUCUGAUUCCCCGUGAAUUCUUCCCAAUUUAGCCUGUCUCCUUAAACCUCUUCCUCAUUCCCUCGGUUUUAUUCUGAACCCGUAAGGUGGCAACAGAGGAUUGAGCAUCA
B9: chr5:136174412:136174513:+|CDS|ENSG00000113658|unk|total|mutant (ssRNA)
RNA: GGGAGUUCUACAGUCCGACGAUCUAUGUUGGUGGAGAGGUGUAUGCGGAAUGCCUCAGUGACAGCAGCAUAUUUGUACAGAGCCGGAACUGCAACUUUCAUCAUGGCUUUCAUCCCACCACUGUCUGUAAGAUUCCCAGCAGCCAACAGAGGAUUGAGCAUCA
B10: chr6:89631235:89631336:+|3pUTR|ENSG00000135299|msi1|FALSE|unique (ssRNA)
RNA: GGGAGUUCUACAGUCCGACGAUCUGAAGUUUGAAAGCUCAGAUUAAGCAAGCCAUGCCAAGAAACUGGACGAUGUGUAAGCCUAGACUCUAAAAUUCAAGAUGUGUGAAAUAAUAUAAGUCAAAAGCAAGAAAAACGUAAUCCCAACAGAGGAUUGAGCAUCA
B11: chr2:33399154:33399255:+|3pUTR|ENSG00000049323|msi1|total|mutant (ssRNA)
RNA: GGGAGUUCUACAGUCCGACGAUCAAGUACUUUAUAUUUUCAGUGUUUUGUCUGAUUUUAAUGUCCGUUCUCCGCCAAGCUGCCCGCAGGUGUUAAUUGGAUCCCUUUCCUUCACUGAAAUGGAAGAGUUUAUAAGCUUACGUUCAACAGAGGAUUGAGCAUCA
B12: chr9:134030564:134030586:-|3pUTR|ENSG00000169925|msi1_unk|FALSE|overlapping (ssRNA)
RNA: GGGAGUUCUACAGUCCGACGAUCCCUCUGACAGUCUUUUGGGAAAGAGUAACACCCACAUACAGAAUUUGUCACAUCCAGAGUAGCACUGUUCCUUAAUACUGGCAUAAUGCUUCCAGGAAGUUUUUCUUUUUUAUAUUUAAACAACAGAGGAUUGAGCAUCA
B13: chr15:65118290:65118391:-|3pUTR|ENSG00000090470|msi1|total|mutant (ssRNA)
RNA: GGGAGUUCUACAGUCCGACGAUCACUUCCUUGUGUGUUGAUGGGUAAGUACACUCAAACACUGAAUACAGGUGUGUGAUGGGCCGAUUUCACAGCCCUUCUACUAACCGUGAGUGUGAAGGCAAGCUUGAUGCAAAACCUCCUCAACAGAGGAUUGAGCAUCA
B14: chr1:226632358:226632459:-|3pUTR|ENSG00000143772|msi1|FALSE|unique (ssRNA)
RNA: GGGAGUUCUACAGUCCGACGAUCUCAAGCCAUUUUGCCACUCGCUUCCCUGCCAUCUGGCCCUUCCCUUUGUCUCAGUGGGAUAGAUGGAUUGUGAAAUGGAAUCUCCCAGAACCCCUGCCCUGGCAGCCUGGAAGACCGUGCCAACAGAGGAUUGAGCAUCA
B15: chr6:52752853:52752995:-|CDS|ENSG00000244067|control|control|control (ssRNA)
RNA: GGGAGUUCUACAGUCCGACGAUCAUUGAUAUGUAUAUAGAAGGUAUAGCAGAUUUGGGUGAAAUGAUCCUUCUUCUGCCCUUUAGUCAACCUGAGGAACAAGAUGCCAAGCUUGCCUUGAUCCAAGAGAAAACAAAAAAUCGCCAACAGAGGAUUGAGCAUCA
B16: chr8:63210610:63210711:+|3pUTR|ENSG00000185728|msi1|FALSE|unique (ssRNA)
RNA: GGGAGUUCUACAGUCCGACGAUCCAUGAAGUAAAAAUUUAUUACUCUAGGUAUUCACUAGCUAAAUAAACAUAGUUCUUGUUUAGCAAGCAUAUGUUGUUCCUCAGCUCUUUUCUCCAGCUUUUGCAGUGUCCUGGCAUCCUUCAACAGAGGAUUGAGCAUCA
B17: chr14:100537146:100537968:-|three_prime_utr|ENSG00000183092|control|control|control (ssRNA)
RNA: GGGAGUUCUACAGUCCGACGAUCGCCCCGGCCAACAACGAGGAGUCUGUUCCUCCCCGCACCUCCUCUCCUCCCCAGCCCUGUAGGCCUGAGGGGAGGGUCCCCCACACCACGGUGUCCACCCGGCCCCGGCCCGUGGAACUCCAACAGAGGAUUGAGCAUCA
B18: chr16:70532473:70532607:+|CDS|ENSG00000189091|unk|total|mutant (ssRNA)
RNA: GGGAGUUCUACAGUCCGACGAUCCAAUGAUCCAACAGGGGAAGCAGCAGCUAAUACCCAGCAGACACUUACUUUCUAUGAGCCCGACCUUGGUUUAAAUCAUGUGGUCCGAAAAUACAGUGAACCUUUGGAGGAACACGGCAACAACAGAGGAUUGAGCAUCA
B19: chr2:40113585:40113686:-|3pUTR|ENSG00000183023|msi1|FALSE|unique (ssRNA)
RNA: GGGAGUUCUACAGUCCGACGAUCUCAUUUUAUUUUUUUACUUAAAAGGCUAUUUUGAGCCCUGUUUCUUUCACUGUCCAGUCUAGUCCUCUUUGAUUAUAUCAGUAGUUGCUGAGUAAGAAAGAAGCCAGGGUGACCAACGGGCAACAGAGGAUUGAGCAUCA
B20: chr4:41013971:41014072:-|CDS|ENSG00000163697|msi1|FALSE|unique (ssRNA)
RNA: GGGAGUUCUACAGUCCGACGAUCGCAGGACCCCAACAAAAACCUGAGCCCCACUGCAGUCAUCAACAUAACUUCUGAGAAGUUAGAGGGUAAAGAGCCCCACCCACAGGAUUCCUCGAGCUGUGAGAUUUUACCCUCCCAGCCCAACAGAGGAUUGAGCAUCA
B21: chr5:138184526:138184629:+|CDS|ENSG00000112984|unk|total|mutant (ssRNA)
RNA: GGGAGUUCUACAGUCCGACGAUCGUGCAUGCCCCACCUAUGCAACUGGGAUUCCCAUCCCUGCACUCGUUCAUCAAGGAACACCGUCUUCAGGUAUCCCCCAGCUCCGAGAAAGGGGCUAAGGCAGACACAGGCCUUGAUGAUCAACAGAGGAUUGAGCAUCA
B22: chr9:34253332:34253433:-|3pUTR|ENSG00000186638|unk|FALSE|unique (ssRNA)
RNA: GGGAGUUCUACAGUCCGACGAUCCUCUGAAACAGAAUUCACACACAAACCUUCAGCCAAGUUCUGCCUGCUGUGUAUCUUUUUAGCAGGAAGCAGCUCAGGACAGGGAAGACAAAGUAGCCUCCAGGUGCCAAUUACUUUAAACAACAGAGGAUUGAGCAUCA

The list shows a part of the results.

For this assay, the target named is MSI1 full-length (mouse, UniProt Q61474 1-362). Briefly: nsRBNS (natural sequence RNA bind-n-seq); RBNS binding buffer (assumed for nsRBNS): 25 mM Tris pH 7.5, 150 mM KCl, 3 mM MgCl2, 0.01% Triton X-100, 500 ug/ml BSA, 20 U/ml SUPERase-In, 4 C; UNK is unkempt and MSI1 is Musashi-1; names of the RNAs are library labels; protein concentration not given here; high values mean tight binding.
UniProt Q61474, sequence (Q61474 whole entry): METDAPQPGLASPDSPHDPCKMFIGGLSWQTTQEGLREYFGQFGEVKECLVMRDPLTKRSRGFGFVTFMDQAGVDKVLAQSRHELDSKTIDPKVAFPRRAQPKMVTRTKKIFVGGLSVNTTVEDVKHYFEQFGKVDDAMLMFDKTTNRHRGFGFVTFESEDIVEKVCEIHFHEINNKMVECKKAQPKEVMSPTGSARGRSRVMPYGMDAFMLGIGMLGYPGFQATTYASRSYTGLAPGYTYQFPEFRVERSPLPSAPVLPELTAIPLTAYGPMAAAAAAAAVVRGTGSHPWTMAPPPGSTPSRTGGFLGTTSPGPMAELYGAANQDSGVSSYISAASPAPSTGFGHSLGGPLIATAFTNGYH
B1 registered a binding signal of 0.622 enrichment R.
B2 registered a binding signal of 0.363 enrichment R.
In turn, B3 registered a binding signal of 0.446 enrichment R.
In the case of B4 it was 0.405 enrichment R.
Consider B5, for which the binding signal is 0.336 enrichment R.
In turn, B6 yielded a binding signal of 2.44 enrichment R.
Regarding B7, the binding signal was 0.45 enrichment R.
In the case of B8 it was 0.944 enrichment R.
B9: the binding signal was 0.605 enrichment R.
For B10, the binding signal was 0.258 enrichment R.
The same measure for B11: 0.383 enrichment R; for B12: 0.734 enrichment R.
The same measure for B13: 0.234 enrichment R; for B14: 1.34 enrichment R; for B15: 0.83 enrichment R.
The same measure for B16: 3.2 enrichment R; for B17: 0.593 enrichment R; for B18: 0.36 enrichment R.
Turning to B19, the binding signal came to 1.73 enrichment R.
The same measure for B20: 0.526 enrichment R; for B21: 0.32 enrichment R; for B22: 0.755 enrichment R.
